# The campaign covered roughly 280,000 compounds. About 100 (0.036%) were called active. The shares of active, inactive and inconclusive entries below differ from those in the screen. The call rests on the fitted dose curve; in most records, active means well fitted inhibition curve with a large enough effect in the signal ratio, with a control signal flat (not every such curve was filed as active); inconclusive means small, poorly fitted or top-dose-only effect, or effect the other way, or a change in a side signal; inactive means no such curve, though single readings can be large or run the other way; the % refers to the signal ratio. Where the call is inconclusive, the potency comes from a doubtful curve fit. A note “side channel” means that the fit belongs to a control or component signal, not to the main read-out.
# Molecular target: Muscleblind-like protein 1 (Homo sapiens) (UniProt Q9NR56)
# UniProt Q9NR56, sequence (Q9NR56 whole entry, looked up): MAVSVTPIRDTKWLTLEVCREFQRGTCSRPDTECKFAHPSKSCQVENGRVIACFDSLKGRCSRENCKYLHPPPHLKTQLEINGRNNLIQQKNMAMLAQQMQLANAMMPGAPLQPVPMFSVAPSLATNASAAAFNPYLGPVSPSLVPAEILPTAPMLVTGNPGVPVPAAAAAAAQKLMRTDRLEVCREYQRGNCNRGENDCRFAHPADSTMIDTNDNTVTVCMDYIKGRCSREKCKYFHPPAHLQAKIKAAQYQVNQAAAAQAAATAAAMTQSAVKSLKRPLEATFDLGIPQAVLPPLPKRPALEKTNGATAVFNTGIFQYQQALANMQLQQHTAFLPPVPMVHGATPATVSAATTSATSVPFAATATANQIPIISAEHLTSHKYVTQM
# Experiment: qHTS Assay for Inhibitors of MBNL1-poly(CUG) RNA binding
# Conditions: TR-FRET MBNL1-His/biotin-(CUG)12 binding, 665/545 ratio; activity change, negative = inhibition: at 57.5 µM (top of the series)
# Procedure, shortened: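 TR-FRET readout: Ex 340 nm, 665/545 nm emission ratio, normalized to buffer-only (basal) and MBNL1-(CUG)12 controls. Complex of MBNL1-His with Biotin-(CUG)12, compounds 92 nM–58 uM, incubated 60 min at room temperature.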
# On the % scale 0 is the no-effect control and ±100 the full control effect; potency means the concentration at half of the fitted maximal effect; tags describe the fitted curve by direction and shape or compound fluorescence and quenching.
Compound,Potency,"activity change, negative = inhibition"
O=C(Oc1ccc(C(=S)N2CCOCC2)cc1)c1ccccc1[N+](=O)[O-],"inconclusive: 11.2 µM [quencher, side channel, partial curve]",
COc1ccccc1NC(=O)N1CCN(c2ccc(F)cc2)CC1,"inconclusive: 15.8 µM [fluorescent, side channel, partial curve, poor fit]",
CCN(CC)c1ccc(NC(=O)/C=C\c2ccccc2Cl)cc1,"inconclusive: 35.5 µM [quencher, side channel, single point]",
CSc1nc(-c2ccco2)nn1S(=O)(=O)c1ccccc1,,inactive: 4.74%
O=C(CCCN1C(=O)c2cccc3cccc(c23)C1=O)N1CCN(c2ccccn2)CC1,"inconclusive: 15.8 µM [quencher, side channel, partial curve]",
O=C(NNC(=O)c1cccnc1SCc1cccc([N+](=O)[O-])c1)c1cccnc1,,inconclusive: 25.6% [phenotype inactive]
O=C1c2ccccc2N2C(=O)c3ccccc3[C@H]2N1c1ccccc1,,inactive: 13.2%
CC(=O)N1CCN(c2ccc(NC(=O)c3ccco3)cc2)CC1,,inactive: 2.98%
COc1ccc2cc(C(=O)C3CCCN(C(=O)CCc4ccccn4)C3)ccc2c1 (configuration not stated),"inconclusive: 28.2 µM [quencher, side channel, single point]",
O=C(CN1C(=O)c2cccnc2C1=O)c1ccccc1,"inconclusive: 39.8 µM [quencher, single point]",
COc1ccc(OCc2nnc(SCC(=O)c3ccccc3)o2)cc1,,inactive: 10.2%
Nc1c(C(=O)NCc2ccco2)c2nc3ccccc3nc2n1CCc1ccc(F)cc1,,inactive: 5.58%
O=C(NC(Cc1ccccc1)C(=O)O)C1CCCCC1 (configuration not stated),"inconclusive: 31.6 µM [fluorescent, side channel, partial curve]",
Cc1ccc(C(=O)/C=C/Nc2ccc(S(=O)(=O)Nc3onc(C)c3C)cc2)cc1,"inconclusive: 11.2 µM [quencher, side channel, partial curve]",
O=C(CCC1CCCN(Cc2ccc3c(c2)CCO3)C1)NCc1ccc(F)c(F)c1 (configuration not stated),,inactive: 0.441%
C=CCn1c2ccccc2c2nnc(SCCN3CCOCC3)nc21,"inconclusive: 12.6 µM [quencher, side channel, partial curve]",
O=C(CSCc1ccc([N+](=O)[O-])cc1)NC1CC1,"inconclusive: 25.1 µM [quencher, side channel, partial curve]",
CC1=NNC(=O)C1C(c1ccccc1)C1C(=O)NN=C1C (configuration not stated),"inconclusive: 31.6 µM [quencher, side channel, single point]",
CC/C(=N\NC(=O)CSCc1ccc(Cl)cc1)c1ccc2c(c1)OCCO2,,inactive: -1.31%
Cc1cccc(NC(=O)c2ccccc2Br)n1,,inactive: 5.69%
COc1cc(/C=N/NC(=O)CCn2c3ccccc3c3ccccc32)cc(OC)c1OC,,inactive: 3.24%

Compound,Potency,"activity change, negative = inhibition"
CCOc1ccc(/C=C2/Sc3ccc(C(=O)N4CCOCC4)cc3N(C)C2=O)cc1OC,"inconclusive: 7.94 µM [quencher, side channel, partial curve]",
COc1ccc(C(N)c2nccc3cc(OC)c(OC)cc23)cc1OC (configuration not stated),"inconclusive: 31.6 µM [quencher, side channel, partial curve]",
O=C(O)c1ccc2c(c1)C(=O)N(c1ccc(Nc3ccccc3)cc1)C2=O,"inconclusive: 17.8 µM [quencher, side channel, partial curve]",
COC(=O)/C(=C\C=C\c1ccccc1)NC(=O)c1ccccc1,"inconclusive: 25.1 µM [quencher, side channel, partial curve]",
Cc1ccc(/C=N/Nc2ncc(Cl)cc2Cl)s1,,inactive: 7.87%
O=C(O)CSc1nnc(COc2ccc([N+](=O)[O-])cc2)n1-c1ccccc1,"inconclusive: 35.5 µM [quencher, side channel, single point]",
Cc1nc2ccc(NC(=S)N3CCCC3)cc2nc1C,"inconclusive: 17.8 µM [quencher, side channel, partial curve]",
N#CC(C#N)=Cc1cccn1-c1ccc(S(N)(=O)=O)cc1,"inconclusive: 14.1 µM [quencher, side channel, partial curve]",
O=C(Cc1c(F)cccc1Cl)Nc1ncc([N+](=O)[O-])s1,"inconclusive: 15.8 µM [quencher, side channel, partial curve]",
Cc1nc(SCc2ccc([N+](=O)[O-])cc2)n[nH]1,"inconclusive: 25.1 µM [quencher, side channel, single point]",
Cc1ccc(-c2nnc(SCC(=O)N/N=C/c3cccs3)n2-c2ccc(C)cc2)cc1,"inconclusive: 0.0891 µM [fluorescent, side channel, full curve, poor fit]",
CCOC(=O)c1sc(NC(=O)c2ccncc2)c(C#N)c1C,,inactive: -18.8%
CCOC(=O)c1sc2ccc(S(=O)(=O)N3CC(C)CC(C)C3)cc2c1N (configuration not stated),"inconclusive: 3.55 µM [fluorescent, side channel, single point]",
CC(C)(C)C1=CC(=O)C(N2CCOCC2)=CC1=O,"inconclusive: 1.12 µM [quencher, side channel, partial curve]",
CN1CCc2c(sc3c2C(=O)NC(c2cn(Cc4ccccc4)c4ccccc24)N3)C1 (configuration not stated),"inconclusive: 22.4 µM [quencher, side channel, partial curve]",
CCN(Cc1ccncc1)C(=O)c1ccc2c(c1)S(=O)(=O)c1ccccc1C2=O,"inconclusive: 5.01 µM [quencher, side channel, partial curve]",
COc1ccc2c(CCNC(=O)c3ccc([N+](=O)[O-])cc3)c[nH]c2c1,"inconclusive: 12.6 µM [quencher, partial curve]",
O=[N+]([O-])c1cccc(-c2nc(-c3ccncc3)no2)c1,"inconclusive: 6.31 µM [quencher, full curve, poor fit]",
Nc1ccc(C(=O)N2CCN(S(=O)(=O)c3ccc4c(c3)OCCO4)CC2)cc1[N+](=O)[O-],"inconclusive: 15.8 µM [quencher, side channel, partial curve]",
CCOC(=O)Cn1c(C)nc2c(C(=O)OCC)sc(C)c2c1=O,"inconclusive: 31.6 µM [quencher, side channel, single point]",
COc1ccc(NC(=O)c2cccc([N+](=O)[O-])c2)cc1,"inconclusive: 15.8 µM [quencher, side channel, partial curve]",

Compound,Potency,"activity change, negative = inhibition"
CC1=NN(C(=O)c2ccccc2Br)C(O)(c2ccc(Cl)cc2)C1 (configuration not stated),,inactive: -2.21%
Cc1ccc([N+](=O)[O-])cc1NC(=O)C[n+]1ccccc1,"inconclusive: 39.8 µM [quencher, side channel, single point]",
CCN(c1ccccc1)S(=O)(=O)c1ccc(C(C(=O)OC)C(=O)OC)c([N+](=O)[O-])c1,"inconclusive: 25.1 µM [quencher, side channel, partial curve]",
CCCn1nc(NC(=O)c2ccco2)c2cc3ccccc3nc21,"inconclusive: 17.8 µM [quencher, side channel, partial curve]",
CC(=O)c1ccc(OCc2cc(C(=O)N3CCCCCCC3)no2)cc1,,inactive: -8.06%
O=C(c1cc(-c2ccncc2)nc2ccc(Cl)cc12)N1CCN(Cc2ccc3c(c2)OCO3)CC1,,inactive: 4.62%
COc1ccc(C)cc1NC(=O)CN1CCN(S(=O)(=O)c2ccc(F)cc2)CC1,,inactive: 2.25%
O=C(CN(c1cccc([N+](=O)[O-])c1)S(=O)(=O)c1ccccc1)NCc1cccnc1,"inconclusive: 25.1 µM [quencher, side channel, partial curve]",
O=C(/C=C/c1ccc(S(=O)(=O)NCc2ccco2)cc1)NCc1ccccc1Cl,"inconclusive: 3.16 µM [quencher, side channel, full curve, poor fit]",
CCCS(=O)(=O)N1CCCC(C(=O)c2cccc(Cl)c2)C1 (configuration not stated),,inactive: -15.3%
COc1ccc2c(c1)Cc1sc(NC(C)=O)nc1-2,"inconclusive: 17.8 µM [quencher, side channel, single point]",
O=C(Nc1ccccc1C(=O)N1CCOCC1)c1ccc([N+](=O)[O-])cc1,"inconclusive: 12.6 µM [quencher, side channel, partial curve]",
COc1ccc(C2=C(N)c3ccccc3C2=O)cc1,"inconclusive: 2.82 µM [quencher, side channel, full curve]",
CCOC(=O)CSc1ccc(C(=O)NCCCN2CCOCC2)cc1[N+](=O)[O-],"inconclusive: 20 µM [quencher, side channel, partial curve]",
Cc1ccc2[nH]c(=O)c(NC(N)=S)nc2c1,"inconclusive: 22.4 µM [quencher, single point]",
Cc1cc(C(=O)N2CCN(c3ccc(C(F)(F)F)cn3)CC2)c(C)o1,,inactive: 1.17%
O=C(Nc1ccc(S(=O)(=O)N2CCOCC2)cc1)c1cc([N+](=O)[O-])ccc1Cl,"inconclusive: 5.62 µM [quencher, side channel, partial curve]",
Cc1ccc(C2C(C(=O)c3ccco3)=C(O)C(=O)N2c2nnc(C)s2)cc1 (configuration not stated),"inconclusive: 35.5 µM [quencher, side channel, single point]",
COc1ccc(C(=O)c2oc3ccccc3c2N)cc1,"inconclusive: 12.6 µM [quencher, partial curve]",
CCOc1ccc(-n2c(SCC(=O)OC)nc3sc4c(c3c2=O)CCN(C)C4)cc1,"inconclusive: 15.8 µM [quencher, side channel, partial curve]",

# From PubChem BioAssay AID2675 (National Center for Advancing Translational Sciences (NCATS), 2010)
